Experimental data taken from the supplement of paper PMC8674133.
Recombinant human monoclonal antibodies (heavy:light variable regions). ELISA EC50 on the named antigen, from 10 µg/ml down; IC50 / IC90 against spike pseudovirus on 293T-ACE2 cells, 48 h; lower = stronger. Calls: IC50 above 1,000 ng/ml = non-neutralizing; EC50 above 2,000 ng/ml = non-binder. The source prints 1000 for neutralization that was not reached; it is given as >1000 ng/ml. A few antibodies were first reported in earlier work of the same group.

Experiments:
[1] = target: SARS-CoV-2 Wuhan-Hu-1 spike pseudovirus; test: pseudovirus neutralization IC50; higher = weaker neutralization
Description: (§1)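 Single-round luciferase reporter pseudovirus mixed with antibody dilutions and put on 293T-ACE2 cells for 48 h; signal relative to no-antibody wells, four-parameter fit.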

[2] = target: SARS-CoV-2 Wuhan-Hu-1 spike pseudovirus; test: pseudovirus neutralization IC90; higher = weaker neutralization
Description: as §1

[3] = target: SARS-CoV-2 Wuhan-Hu-1 spike receptor-binding domain; test: ELISA binding EC50; higher = weaker binding; ELISA of recombinant human antibody on coated antigen, from 10 µg/ml in fourfold dilutions; four-parameter fit.

Binder	pseudovirus neutralization IC50 [1] [µg/mL]	pseudovirus neutralization IC90 [2] [µg/mL]	ELISA binding EC50 [3] [µg/mL]
C1401 (protein) chain 1: QLQLQESGRGLVKPSETLSLTCTVSGGSISGSSHYWGWIRQPPGKGLEWIGSIYHSGSTYYNPSLKSRVTISVDTSKNQFSLKLSSVTAADTAVYYCASRRPPFYHDSHDMDVWGQGTTVTVSS chain 2: QSALTQPRSVSGSPGQSVTISCTGTSSDVGGYDYVSWFQQHPGKAPKLMIYDVTKRPSGVPDRFSGSKSGNTASLTISGLQAEDEADYFCCAFAGKYSPYVFGTGTKVTVL	> 1	> 1	0.00268
C1402 (protein) chain 1: EVQLVESGGGLVQPGGSLRLSCAASGIIVSRNYMSWVRQAPGKGLEWVSIIYSGGSTFYADSVKGRFTISRHNSNNTLHLQMNSLRPEDTAVYYCARGGGYFYGMDVWGQGTTVTVSS chain 2: not shown	> 1	> 1	2
C1404 (protein) chain 1: VQLVESGGGVVQPGRSLRLSCAASGFTFSSYGMHWVRQAPGKGLEWVAVISYDGSNKYYADSVKGRFTISRDNSKNTLYLQMNSLRAEDTAVYYCAKVGATYCGGGNCLRGYFDYWGQGTLVTVSS chain 2: QSVLTQPPSASGTPGQRVTISCSGSSPIIGANTVNWYQQLPGTAPKLLIYSNNQRPSGVPDRFSGSKSGTSASLAISGLQSEDEADYYCASWGDSLVFGGGTKLTVL	> 1	> 1	> 10
C1400 (protein) chain 1: EVQLVESGGGLVQPGRSLRLSCAASGFTFDDYAIHWVRQAPGKGLEWVSGVTWNSGTIDYADSVKGRFIISRDNAKNSLYLQMIRLRPEDTALYYCAKDLGSGDGYNFSLDYWGQGTLVTVSS chain 2: QSVLTQPPSVSGAPGQRVTISCTGSSSNIGAGYDVHWYQQPPGTAPKLLIYGNSNRPSGVPDRFSGSKSGTSASLAITGLQAEDEADYYCQSYDSSLSVVFGGGTKLTVL	0.00824	0.13	0.00344
C1406 (protein) chain 1: QVQLVQSGAEVKKPGASVKVSCKASGYTFTSYYMHWVRQAPGQGLEWMGIINPSGGSTTYAQRFQGRVTMTRDTSTRTVYMELSSLRSEDTAVYYCARDIAGVPAAIGCEYWGQGTLVTVSS chain 2: DIQLTQSPSSLSASVGDRVTITCRTSQTITSYLNWYQQKPGKAPKLLIYAASSLQSGVPSRFSGSGSGTDFTLTINNLQPEDFATYYCQQSYRTPRFTFGPGTKVDIK	> 1	> 1	0.00272
C1413 (protein) chain 1: EVQLVESGGGLVQPGGSLRLSCAASGFTFSSYNMNWVRQAPGKGLEWVSYISGTSTTIYYADSVQGRFTISRDNAKNSLYLQMNSLRDEDTAVYYCARGLGPKSYYYYGMDVWGQGTTVTVSS chain 2: DIQLTQSPSSLSASVGDRVNIACRASQSIASYLSWYQQKPGKAPKLLISGASSLQGGVPSRFSGSGSGTDFTLTISGLQPEDFATYYCQQTYSTPQVFGQGTKLEIK	> 1	> 1	0.0025
C1414 (protein) chain 1: QVQLQESGPGLVKPSETLSLTCNVSGGSISSYYWSWIRQPPGKGLEWIGYIYYSGSTNYNPSLKSRVIISVDTSKKQFSLKLSSVTAADTAVYYCARHYDSSGYTYNWFDPWGQGTLVTVSS chain 2: QSVLTQPPSVSGAPGQRVTISCTGSSSNIGAGFDVHWYQQLPGTAPKLLIYGNSNRPSGVPDRFSGSKSGTSASLAITGLQAEDEADYYCQSYDSSLSSLVFGGGTKLTVL	0.00198	0.0308	0.00326
C1403 (protein) chain 1: QLQLQESGPGLVKPSETLSLTCTVSGGSITSSSYYWGWIRQPPGKGLEWIGSIYYSGSTYYNPSLKSRVTISVDTSKNQFSLKLSSVTAADTAVYYCARLLLYNSGWYGSGAMVPVIIDLWGRGTLVTVSS chain 2: QSALTQPASVSGSPGQSITISCTGSSSDVGGYKYVSWYQHHPGKAPQLMIYEVSKRPSGVSNRFSGSKSGNTASLTISGLQAEDEADYYCSSYRGSSTLVFGGGTKLTVL	> 1	> 1	> 10
C2307 (protein) chain 1: QVQLVQSGAEVKKPGASVKVSCKASGYTFTSYGISWVRQAPGQGLEWMGWISAYNGNTNYAQKLQGRVTMTTDTSTSTAYMELRSLRSDDTAVYYCARASGFMVRGVNPNYYYYMDVWGKGTTVTVSS chain 2: QSALTQPASVSGSPGQSITISCTGTSSDVGSYNLVSWYQQHPGKAPKLMIYEGSKRPSGVSNRFSGSKSGNTASLTISGLQAEDEADYYCCSYAGSSTWVFGGGTKLTVL	0.0964	0.729	0.00256
C1410 (protein) chain 1: QVQLQESGPGLVKPSGTLSLTCTVSGGSIDSRDWWAWVRQPPGKGLEWIGEIYFTGSTNYNPSLKSRVTISLDNSKTQFSLNLTSVTAADTAVYYCARVALWGINLPSYFSRGFDIWGQGTMVTVSS chain 2: QSVLTQPPSASGTPGQRVTISCSGSSSNIGSYSVSWYQQFPGTAPKLLIHKNNQRPSGVPDRFSGSKSGTSASLAISGLRSEDEADYYCAAWDDSLSGPNWVFGGGTKVTVL	0.0174	0.162	0.00284
C2156 (protein) chain 1: QVQLVQSGAEVKKPGASVKVSCKASGYTFTSYYMHWVRQAPGQGLEWMGIINPSGGSTSYAQKFQGRVTMTRDTSTSTVYMELSSLRSEDTAVYYCARDIVVVPAKNAFDIWGQGTMVTVSS chain 2: EIVLTQSPATLSLSPGERATLSCRASQSVSSYLAWYQQKPGQAPRLLIYDASNRATGIPARFSGSGSGTDFTLTISSLEPEDFAVYYCQQRSNWPLYTFGQGTKLEIK	> 1	> 1	0.0198
C2021 (protein) chain 1: EVQLVESGGGLVKPGRSLRLSCTASGFTFGDYAMSWFRQAPGKGLEWVGFIRSKAYGGTTEYAASVKGRFTISRDDSKSIAYLQMNSLKTEDTAVYYCTRDGDYCGGDCPEYFQHWGQGTLVTVSS chain 2: SYELTQPPSVSVAPGQTARITCGGNNIGSKSVHWYQQKPGQAPVLVVYDDSDRPSGIPERFSGSNSGNTATLTISRVEAGDEADYYCQVWDSSSDHPQVVFGGGTKLTVL	> 1	> 1	0.00171
C1302 (protein) chain 1: EVQLVESGGGLVQPGGSLRLSCAASGIIVSRNYMSWVRQAPGKGLEWIAIIYSGGSTFYADSVKGRFSISRDNSKNTLFLQMNSLRAEDTALYYCARDLHTYGLDYWGQGILVTVSS chain 2: DIQLTQSPSFLSASVGDRVTITCRASQGISSDLAWYQQKPGKAPKLLIYGASTLQSGVPSRFSGSGSGTEFTLTIGSLQPEDFATYYCQHLNSYPPVTFGGGTKVEIK	0.00471	0.0311	0.00166
C1303 (protein) chain 1: EVQLVESGGGLIQPGGSLRLSCAASGITVSSNYMSWVRQAPGKGPEWVSTLHSGGSTFYADSVKGRFTISRDDSKNTLYLQMNSLRAEDTAVYYCARGGGHYYGMDVWGQGTTVTVSS chain 2: DIQLTQSPSFLSASVGDRVTITCRASQGISHYLAWYQQKPGKAPKLLIYGASTLQNGVPSRFSGSGSGTEFTLTISSLQPEDFATYYCQRLNSYPPITFGQGTRLEIK	0.0293	0.147	0.00141
C2155 (protein) chain 1: EVQLVESGGGLVQPGGSLRLSCAASGFTFSSYWMHWVRQAPGKGLVWVSRINSDGSSTSYADSVKGRFTISRDNAKNTLYLQMNSLRAEDTAVYYCARGQYAFGDFDYWGQGTLVTVSS chain 2: QSALTQPPSASGSPGQSVTISCTGTSSDVGGYNYVSWYQQHPGKAPKLMIYEVSKRPSGVPDRFSGSKSGNTASLTVSGLQAEDEADYYCSSYAGKDVVFGGGTKLTVL	> 1	> 1	> 10
C1305 (protein) chain 1: EVQLVESGGGLSQPGGSLRLSCAASEIVVSANYMSWVRQAPGKGLEWVSTLYPGGTTYYVDSVKGRFVISRDNSKNTLYLQMNTLRAEDTAVYYCARDLGYFDFWGQGTLVTVSS chain 2: IRMTQSPSSLSASVGDRVTITCRASQGISNFLAWYQQKPGKAPNLLIYAASTLQSGVPSRFSGSGSGTDFTLTISSLQPQDVATYYCQKYNSAPPWTFGQGTKVEIK	0.0101	0.175	0.0029
C2154 (protein) chain 1: QVQLVQSGAEVKKPGSSVKVSCKASGGTFSNYAFNWVRQGPGQGLEWMGGIIPVFVTPLYAQKFEGRVTITADRSTTTVYMELIGLRSEDTAVYYCARETRGFGDLFGKGYFYYSGMDVWGQGTTVTVSS chain 2: QSALTQPASVSGSPGQSITISCTGTNRDVGGYNYVSWYQHRPGGAPKLIIFEVTNRPSGVSSRFSGSKSGSTASLTISGLQSEDEADYYCSSYRDTNTRVFGGGTKLTVL	> 1	> 1	0.00204
